{
  "source": "PubChem BioAssay AID686978",
  "about": "(National Center for Advancing Translational Sciences (NCATS), 2013)",
  "note": "About 64,000 (15%) of roughly 420,000 compounds were called active. Inconclusive means that the source gave no clear call. Such entries were picked first, then a sample of the others. Calls follow the shape of the dose curve; as a rule, active = well fitted inhibition curve with a large enough effect; inconclusive = small, poorly fitted or top-dose-only effect; inactive = flat fitted curve, though single readings scatter. Potencies of inconclusive entries are left out as doubtful fits. Potency is read from the fitted curve at half-maximal effect; tags tell the direction and shape of the fitted curve.",
  "data": [
    {"assay": "qHTS for Inhibitors of human tyrosyl-DNA phosphodiesterase 1 (TDP1): qHTS in cells in absence of CPT; also: nearly all actives have a fitted effect of over 55% in size", "details": "DT40 Tdp1-/- hTDP1 cells, no CPT, ATP luminescence, 48 h; series mostly up to 46.2 µM", "in_short": "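Compound effects on proliferation are scored in DT40 Tdp1-/-;hTDP1 cells in the absence of CPT. ATP levels (CellTiter-Glo luminescence) are recorded after a ≥48 hr, 37 °C incubation.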", "values": [
      {"smiles": "NS(=O)(=O)c1ccc(CCNC(=O)c2ccc(-c3ccccc3)cc2)cc1", "Potency": "inactive"},
      {"smiles": "CCCCOc1cccc(OCC(=O)Nc2nc3ccccc3[nH]2)c1", "Potency": "inconclusive [inhibitor, single point]"},
      {"smiles": "COc1cc(CCCN2C(N)=NC[C@@H]2Cc2ccc(O)cc2)cc(OC)c1OC", "Potency": "inactive"},
      {"smiles": "COc1ccc(/C=C\\c2nc(O)c([N+](=O)[O-])c(=O)[nH]2)cc1O", "Potency": "inactive"},
      {"smiles": "Cc1cc(C)c(S(=O)(=O)Nc2ncccc2C)c(C)c1", "Potency": "inconclusive [inhibitor, single point]"},
      {"smiles": "Cc1ccsc1CCN1C(=O)N(c2ccccc2)C(=O)C1CC(=O)Nc1ccc(Cl)cc1", "note": "(stereo not drawn)", "Potency": "inconclusive [inhibitor, single point]"},
      {"smiles": "COc1ccc(-c2nc3scc(CCNS(=O)(=O)c4ccc(Oc5ccccc5)cc4)n3n2)cc1OC", "Potency": "inconclusive [inhibitor, single point]"},
      {"smiles": "CC(C)COc1cccc(-c2cc(C(=O)N/N=C/c3ccncc3)c3ccccc3n2)c1", "Potency": "inconclusive [inhibitor, partial curve, poor fit]"},
      {"smiles": "CC1(C(=O)NS(=O)(=O)c2cccs2)CCN1C(=O)C1CC1", "note": "(stereo not drawn)", "Potency": "inactive"},
      {"smiles": "CC1Cc2ccccc2N1C(=O)c1nn(C)cc1Br", "note": "(stereo not drawn)", "Potency": "inactive"},
      {"smiles": "Cc1ccccc1-n1c(SCC(=O)Nc2ccccc2Cl)nc2n[nH]c(C)c2c1=N", "Potency": "active: 18.4 µM"},
      {"smiles": "COc1ccc(CC(=O)Nc2cc(S(=O)(=O)N3CCCC3)ccc2Cl)c(OC)c1", "Potency": "inconclusive [inhibitor, single point]"},
      {"smiles": "CC(Cc1cccs1)NC(=S)Nc1ccc(F)cc1", "note": "(stereo not drawn)", "Potency": "inconclusive [inhibitor, single point]"},
      {"smiles": "COCCn1c(SCC#N)nnc1-c1ccccc1", "Potency": "inactive"},
      {"smiles": "Cc1csc(SCC(=O)Nc2ccc(F)cc2Cl)n1", "Potency": "inconclusive [inhibitor, single point]"},
      {"smiles": "Cc1c(C(=O)NCCc2cccnc2)cnn1-c1nccc(-c2ccccc2F)n1", "Potency": "inconclusive [inhibitor, partial curve, poor fit]"},
      {"smiles": "CCCN1CCC(=O)N([C@H](CSc2ccc(Br)cc2)c2ccccc2)CC1", "Potency": "active: 16.4 µM"},
      {"smiles": "CCN(CC)C(=O)c1sc2c(c1C)c(=O)n(Cc1ccccc1)c(=O)n2Cc1ccccc1C", "Potency": "inconclusive [inhibitor, single point]"},
      {"smiles": "CC(C)[C@H](NS(=O)(=O)c1cccc(Cl)c1)C(=O)OCC(=O)NC(=O)CN1CCCC1=O", "Potency": "inactive"},
      {"smiles": "O=C(COC(=O)CNC(=O)c1ccc(Cl)c([N+](=O)[O-])c1)NC(=O)c1ccccc1", "Potency": "inactive"},
      {"smiles": "Cc1cnc(C(=O)OCC(=O)N(C(C)C)C(C)C)cn1", "Potency": "inactive"},
      {"smiles": "COC(=O)C1C(=O)C2=C(CC1C)NC(C)=C(C(=O)OCCOc1ccccc1)C2c1ccc(C)o1", "note": "(stereo not drawn)", "Potency": "active: 16.4 µM"},
      {"smiles": "O=[N+]([O-])c1ccc(S(=O)(=O)NN=Cc2ccc(Cl)c(Cl)c2)cc1", "Potency": "inconclusive [inhibitor, partial curve]"},
      {"smiles": "Cc1ccc2sc(N(Cc3cccnc3)C(=O)CCS(=O)(=O)c3ccccc3)nc2c1C", "Potency": "active: 6.51 µM"},
      {"smiles": "Cc1ccc(S(N)(=O)=O)cc1NC(=O)C(c1ccccc1)c1ccccc1", "Potency": "inactive"},
      {"smiles": "O=C(CNC(=O)c1ccccc1)OCc1cc(=O)n2nc(C3CCCCC3)sc2n1", "Potency": "inactive"},
      {"smiles": "O=C(Nc1cc(C(F)(F)F)ccc1Cl)C(Sc1cccc[n+]1[O-])c1ccccc1", "note": "(stereo not drawn)", "Potency": "active: 4.61 µM"},
      {"smiles": "COC(=O)[C@@]1(Cc2ccc(F)cc2)[C@H]2c3cc(C(=O)N(C)C)n(CCc4ccc(OC)c(Br)c4)c3C[C@H]2CN1C(=O)c1ccccc1", "Potency": "active: 9.2 µM"},
      {"smiles": "CC1CC(C)(C)CC2(C1)NC(=O)N(CC(=O)N1CCN(S(=O)(=O)c3cccs3)CC1)C2=O", "note": "(stereo not drawn)", "Potency": "inconclusive [inhibitor, single point]"},
      {"smiles": "CN(C(=O)c1ccc(Cl)cc1)C1CCS(=O)(=O)C1", "note": "(stereo not drawn)", "Potency": "inactive"},
      {"smiles": "CC(C)(C)n1nc2c(c1NC(=O)c1ccc(F)c(F)c1)CS(=O)(=O)C2", "Potency": "active: 16.4 µM"},
      {"smiles": "CC1=C(C(=O)N2CCCCCC2)CC(CC(=O)NCCCCc2ccccc2)C(=O)N1CCC1=CCCCC1", "note": "(stereo not drawn)", "Potency": "active: 18.4 µM"},
      {"smiles": "O=C(CN1C(=O)NC2(CCCCCC2)C1=O)Nc1ccc(Br)cc1Br", "Potency": "inactive"},
      {"smiles": "Cc1cccc2nc(-c3cccc(NC(=O)Cc4ccccc4)c3)cn12", "Potency": "inconclusive [inhibitor, single point]"},
      {"smiles": "CCCCn1c(N)c(N(CCOC)C(=O)c2cccc(-n3cnnn3)c2)c(=O)[nH]c1=O", "Potency": "inactive"},
      {"smiles": "COc1ccc(CNC(=O)Cc2c(C(=O)O)c(C)cn2C)cc1", "Potency": "inactive"},
      {"smiles": "Clc1ccc(CN2CCN(c3ncnc4sc5c(c34)CCCC5)CC2)cc1Cl", "Potency": "active: 23.1 µM"},
      {"smiles": "O=C(Cc1ccccc1)NNC(=O)C1CC=CCC1", "note": "(stereo not drawn)", "Potency": "inactive"},
      {"smiles": "COc1ccc(-c2cc3cc(OC)c(OC)cc3c(C)n2)cc1", "Potency": "inconclusive [inhibitor, single point]"},
      {"smiles": "COc1cccc(NC(=O)N2CCCC2C(=O)NC2CCCCC2)c1", "note": "(stereo not drawn)", "Potency": "inactive"},
      {"smiles": "CCc1ccc(Nc2n[n+](-c3ccccc3)c(-c3cc(OC)c(OC)cc3Br)s2)cc1", "Potency": "inconclusive [inhibitor, single point]"},
      {"smiles": "Cc1c(C(=O)N2CCC(C)CC2)sc2ncnc(N(C)c3ccccc3)c12", "Potency": "inconclusive [inhibitor, single point]"},
      {"smiles": "CSc1ccccc1N=Cc1nc(-c2ccccc2)oc1O", "Potency": "inconclusive [inhibitor, partial curve, poor fit]"},
      {"smiles": "CN1CCN(c2ccc(CNC(=O)C3Cc4c(-c5cccc(F)c5)ccnc4O3)cc2)CC1", "note": "(stereo not drawn)", "Potency": "active: 20.6 µM"},
      {"smiles": "COc1ccc(-c2nc3scc(CCNS(=O)(=O)c4ccc5c(c4)OCCO5)n3n2)cc1OC", "Potency": "active: 20.6 µM"},
      {"smiles": "CC(C)CC(NC(N)=O)C(=O)NCCc1ccc(Cl)cc1", "note": "(stereo not drawn)", "Potency": "inactive"},
      {"smiles": "Cc1ccc(C)c(N2CCN(c3ccc(N4C(=O)COCC4=O)cc3[N+](=O)[O-])CC2)c1", "Potency": "inactive"},
      {"smiles": "COc1ccc(NC(=O)CCC2CCCCC2)cc1S(=O)(=O)N1CCCCC1", "Potency": "inconclusive [inhibitor, single point]"}
    ]}
  ]
}
